T1: RBFOX1 RRM (Homo sapiens, UniProt Q9NWB1 109-208)
T1 sequence: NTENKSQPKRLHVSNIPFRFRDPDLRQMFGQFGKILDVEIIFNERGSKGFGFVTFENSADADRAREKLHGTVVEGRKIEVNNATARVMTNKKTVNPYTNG

B1: GCGUUAA (DNA:RNA)
RNA: GGGAGACCGGAAUUCAGAUUGUCCGCGUUAAUUAAAUCCCGUCGUAGCCACCA
DNA 1: CAATCTGAATTCCGGTCTCCC
DNA 2: TGGTGGCTACGACGGGATT
B2: CGAGAAU (DNA:RNA)
RNA: B1 RNA with G25C, C26G, G27A, U28G, U29A, A31U
DNA 1: CAATCTGAATTCCGGTCTCCC
DNA 2: TGGTGGCTACGACGGGATT
B3: CUCGUGC (DNA:RNA)
RNA: B1 RNA with G25C, C26U, G27C, U28G, A30G, A31C
DNA 1: CAATCTGAATTCCGGTCTCCC
DNA 2: TGGTGGCTACGACGGGATT
B4: CACGACU (DNA:RNA)
RNA: GGGAGACCGGAAUUCAGAUUGUCCCACGACUUUAAAUCCCGUCGUAGCCACCA
DNA 1: CAATCTGAATTCCGGTCTCCC
DNA 2: TGGTGGCTACGACGGGATT
B5: AUGCUUU (DNA:RNA)
RNA: B1 RNA with G25A, C26U, U28C, A30U, A31U
DNA 1: CAATCTGAATTCCGGTCTCCC
DNA 2: TGGTGGCTACGACGGGATT
B6: UUCUGGA (DNA:RNA)
RNA: B1 RNA with G25U, C26U, G27C, U29G, A30G
DNA 1: CAATCTGAATTCCGGTCTCCC
DNA 2: TGGTGGCTACGACGGGATT
B7: AGACUCA (DNA:RNA)
RNA: B1 RNA with G25A, C26G, G27A, U28C, A30C
DNA 1: CAATCTGAATTCCGGTCTCCC
DNA 2: TGGTGGCTACGACGGGATT
B8: CUGCUAC (DNA:RNA)
RNA: B1 RNA with G25C, C26U, U28C, A31C
DNA 1: CAATCTGAATTCCGGTCTCCC
DNA 2: TGGTGGCTACGACGGGATT
B9: CUGGUCC (DNA:RNA)
RNA: B4 RNA with A26U, C27G, A29U, U31C
DNA 1: CAATCTGAATTCCGGTCTCCC
DNA 2: TGGTGGCTACGACGGGATT
B10: GGAGAAG (DNA:RNA)
RNA: B4 RNA with C25G, A26G, C27A, C30A, U31G
DNA 1: CAATCTGAATTCCGGTCTCCC
DNA 2: TGGTGGCTACGACGGGATT
B11: CAGCGCU (DNA:RNA)
RNA: B4 RNA with C27G, G28C, A29G
DNA 1: CAATCTGAATTCCGGTCTCCC
DNA 2: TGGTGGCTACGACGGGATT
B12: CGGAGGC (DNA:RNA)
RNA: B4 RNA with A26G, C27G, G28A, A29G, C30G, U31C
DNA 1: CAATCTGAATTCCGGTCTCCC
DNA 2: TGGTGGCTACGACGGGATT
B13: GAACGAG (DNA:RNA)
RNA: B1 RNA with C26A, G27A, U28C, U29G, A31G
DNA 1: CAATCTGAATTCCGGTCTCCC
DNA 2: TGGTGGCTACGACGGGATT
B14: CGCUCAA (DNA:RNA)
RNA: B1 RNA with G25C, C26G, G27C, U29C
DNA 1: CAATCTGAATTCCGGTCTCCC
DNA 2: TGGTGGCTACGACGGGATT
B15: GGAACGC (DNA:RNA)
RNA: B1 RNA with C26G, G27A, U28A, U29C, A30G, A31C
DNA 1: CAATCTGAATTCCGGTCTCCC
DNA 2: TGGTGGCTACGACGGGATT
B16: UGCCCCG (DNA:RNA)
RNA: B4 RNA with C25U, A26G, G28C, A29C, U31G
DNA 1: CAATCTGAATTCCGGTCTCCC
DNA 2: TGGTGGCTACGACGGGATT
B17: UGGGGCG (DNA:RNA)
RNA: B4 RNA with C25U, A26G, C27G, A29G, U31G
DNA 1: CAATCTGAATTCCGGTCTCCC
DNA 2: TGGTGGCTACGACGGGATT
B18: GCGAAGA (DNA:RNA)
RNA: B1 RNA with U28A, U29A, A30G
DNA 1: CAATCTGAATTCCGGTCTCCC
DNA 2: TGGTGGCTACGACGGGATT
B19: ACUAAUG (DNA:RNA)
RNA: B4 RNA with C25A, A26C, C27U, G28A, C30U, U31G
DNA 1: CAATCTGAATTCCGGTCTCCC
DNA 2: TGGTGGCTACGACGGGATT
B20: UGGCGGU (DNA:RNA)
RNA: B4 RNA with C25U, A26G, C27G, G28C, A29G, C30G
DNA 1: CAATCTGAATTCCGGTCTCCC
DNA 2: TGGTGGCTACGACGGGATT

Changes are numbered by the printed parent chain; changes in the protein carry UniProt numbers. Some of the results follow.

This test addresses T1, RBFOX1 RRM. The test is described as follows: EMSA; HiTS-Eq, 1 nM pool, 10 min; buffer printed only for the single-RNA assays: 10 mM Tris pH 7.5, 150 mM NaCl, 3.4 mM EDTA, 0.001% NP-40, 30 C. The note with it: tags: His6 N-terminal (pET28a); label: 5' 32P. Put shortly:
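These values rest on relative association constants, computed from read-count changes of each RNA species versus the control reaction and normalised to the cognate motif. Reads came from free RNA recovered by 8% native PAGE after purified RbFox RRM (wild type or mutant) at increasing concentrations was equilibrated for 10 min in 50 µL with 1 nM of a 5′-radiolabelled pool with 7 randomized nucleotides and DNA-annealed flanks.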
On the technique in general: A gel shift assay detects complexes by their altered migration in electrophoresis.
In the case of B1, the binding signal was 0.00728 KA relative to UGCAUGU. For the molecule B2, the binding signal is 0.0105 KA relative to UGCAUGU. For B3, the binding signal was 0.0159 KA relative to UGCAUGU. As for B4, the figure is 0.00136 KA relative to UGCAUGU; as for B5, 0.0125 KA relative to UGCAUGU; as for B6, 0.00363 KA relative to UGCAUGU. With B7, the binding signal was 0.00257 KA relative to UGCAUGU. The result for B8 reads 0.0139 KA relative to UGCAUGU; that for B9, 0.0227 KA relative to UGCAUGU; that for B10, 0.0214 KA relative to UGCAUGU. The result for B11 reads 0.00782 KA relative to UGCAUGU; that for B12, 0.023 KA relative to UGCAUGU. As to B13, the binding signal is 0.0182 KA relative to UGCAUGU. Regarding B14, the binding signal is 0.00447 KA relative to UGCAUGU. As for B15, the figure is 0.0165 KA relative to UGCAUGU. The result for B16 reads 0.0106 KA relative to UGCAUGU; that for B17, 0.0294 KA relative to UGCAUGU; that for B18, 0.0177 KA relative to UGCAUGU.

Turning to B19, the binding signal was 0.00752 KA relative to UGCAUGU. As for B20, the figure is 0.0227 KA relative to UGCAUGU.
